56 compounds from publication PMC4336329 (PLoS ONE, 2015) can be followed below.

Hit rate of the full screen: of about 310,000 compounds, about 14,000 (4.5%) showed an effect of 50% or more. Effects have a minus sign here. The list shows a part of the results.
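Further: peak tail current of the secondary pulse compared with the same well before compound.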

In the assay the target is human ether-à-go-go-related gene (hERG) potassium channel (human, UniProt Q12809). The experiment in a line: primary screen, population patch clamp on CHO cells stably expressing hERG.
Chain of human ether-à-go-go-related gene (hERG) potassium channel (Q12809 whole entry, looked up): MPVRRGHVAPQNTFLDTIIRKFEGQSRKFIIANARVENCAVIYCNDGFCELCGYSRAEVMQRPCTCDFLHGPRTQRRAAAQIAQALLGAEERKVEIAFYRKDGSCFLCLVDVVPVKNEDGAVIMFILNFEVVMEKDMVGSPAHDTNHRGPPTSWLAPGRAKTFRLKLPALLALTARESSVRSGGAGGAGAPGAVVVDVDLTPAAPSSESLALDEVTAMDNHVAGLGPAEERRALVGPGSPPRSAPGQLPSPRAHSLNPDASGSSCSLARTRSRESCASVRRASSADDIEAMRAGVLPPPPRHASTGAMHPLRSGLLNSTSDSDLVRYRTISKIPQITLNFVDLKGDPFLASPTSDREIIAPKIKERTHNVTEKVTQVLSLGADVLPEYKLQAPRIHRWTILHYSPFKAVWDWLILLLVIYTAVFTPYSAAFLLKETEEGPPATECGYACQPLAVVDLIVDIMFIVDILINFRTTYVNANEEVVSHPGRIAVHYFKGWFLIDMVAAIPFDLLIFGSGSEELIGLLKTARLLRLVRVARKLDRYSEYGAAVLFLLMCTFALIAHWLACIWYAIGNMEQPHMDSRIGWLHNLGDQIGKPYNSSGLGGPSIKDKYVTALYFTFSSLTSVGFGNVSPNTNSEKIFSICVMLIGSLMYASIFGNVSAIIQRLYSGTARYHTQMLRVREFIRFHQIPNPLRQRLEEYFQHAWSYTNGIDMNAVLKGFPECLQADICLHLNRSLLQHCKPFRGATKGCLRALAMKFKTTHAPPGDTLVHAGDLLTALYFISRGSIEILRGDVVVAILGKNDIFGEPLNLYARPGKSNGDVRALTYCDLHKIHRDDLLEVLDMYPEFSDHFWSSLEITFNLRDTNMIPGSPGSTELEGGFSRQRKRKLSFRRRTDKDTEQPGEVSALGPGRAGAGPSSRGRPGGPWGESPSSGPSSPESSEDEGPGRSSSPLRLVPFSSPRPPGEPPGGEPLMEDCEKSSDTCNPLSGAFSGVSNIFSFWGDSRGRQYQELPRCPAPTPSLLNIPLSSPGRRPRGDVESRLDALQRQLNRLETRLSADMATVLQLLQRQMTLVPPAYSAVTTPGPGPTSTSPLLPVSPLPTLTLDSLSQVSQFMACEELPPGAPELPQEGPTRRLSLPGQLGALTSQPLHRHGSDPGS
Turning to `O=C(NCc1ccccc1)C1CC(=O)N(c2ccc(OCC(=O)N3CCOCC3)cc2)C1` (centres unmarked), the “hERG current change (%, negative = inhibition) at 10uM” value came out at 14.7%.
Take `CC(C)N(C(=O)Cn1c(SCC(=O)NCc2ccc3c(c2)OCO3)nc2ccccc21)C(C)C`: the “hERG current change (%, negative = inhibition) at 10uM” value was -34.1%.
Take `Cc1c(N2C(=O)CSC2c2ccco2)c(=O)n(-c2ccccc2)n1C` (centres unmarked): the “hERG current change (%, negative = inhibition) at 10uM” value worked out at 0.106%.
As for `OCC1N=C(c2ccccn2)OC1c1ccccc1` (centres unmarked), the “hERG current change (%, negative = inhibition) at 10uM” value was 13.6%.
As to `COc1cccc(Cn2c(=O)ccc3ccccc32)c1`, the “hERG current change (%, negative = inhibition) at 10uM” value was determined as 5.15%.
The same measure for `COc1ccc(NC(=O)c2ccc3c(c2)C(=O)N(Cc2cccnc2)C3=O)c(OC)c1`: -11.1%; for `O=C(N/N=C/c1ccc(OCc2ccccc2)cc1)c1ccc(O)cc1`: 22.4%; for `CC(=O)C1=C(C)NC(SCC(N)=O)=C(C#N)C1CC(C)C` (centres unmarked): 14.5%.
The same measure for `COCCNC(=O)Cn1nc(C(F)(F)F)cc1C`: -9.01%; for `Cc1nc(Nc2nc3c(c(=O)[nH]2)CCC3)nc2ccccc12`: -10.2%.
The same measure for `COC(=O)Cc1ccc(Oc2ncc(C(F)(F)F)cc2Cl)cc1`: 12.3%; for `COc1cccc(/C=N/Nc2nc(C)cc(=O)[nH]2)c1OC`: 13.5%.
Turning to `CCCCCC(=O)Nc1ccccc1N1CCOCC1`, the “hERG current change (%, negative = inhibition) at 10uM” value is -20.8%.
Regarding `CN(C)c1ccc(P(=O)(OC2CCCCC2)C(Nc2ccccc2)c2cccnc2)cc1` (centres unmarked), the “hERG current change (%, negative = inhibition) at 10uM” value was -9.86%.
Consider `O=[N+]([O-])c1ccc(/C=N/NC(=S)Nc2ccccc2F)o1`, for which the “hERG current change (%, negative = inhibition) at 10uM” value is recorded as 7.94%.
`N#Cc1cc(-c2ccccc2)c[nH]c1=O`: the “hERG current change (%, negative = inhibition) at 10uM” value was found to be 9.27%.
The same measure for `CC(C)(CO)CNC(=O)CCc1nnc(Cc2ccc(-c3ccccc3)cc2)o1`: -1.98%.
Take `O=C(CN1C(=O)NC(c2ccccc2)(c2ccccc2)C1=O)NCCNCCO`: the “hERG current change (%, negative = inhibition) at 10uM” value came to 24.1%.
The same measure for `O=C(COC(=O)C1CCC1)Nc1cccc(Cl)c1`: -3.08%; for `Cc1ccc(N(Cc2ccc(C(=O)Nc3ccccc3C(=O)NCc3ccco3)cc2)S(C)(=O)=O)cc1C`: 9.61%; for `CCn1ccnc1CNC(=O)CC1C(=O)NCCN1CCCc1ccccc1` (centres unmarked): 15.2%.
With `Cn1cc(C(=O)NCc2ccc(Cl)cc2)c(=O)c2cc(S(=O)(=O)N3CCOCC3)ccc21`, the “hERG current change (%, negative = inhibition) at 10uM” value came out at 17.8%.
The same measure for `CCc1cc(=O)oc2cc(OCC(=O)N3C[C@H]4C[C@@H](C3)c3cccc(=O)n3C4)ccc12`: 8.87%; for `CCOCCn1c(N(C)Cc2ccccc2)nc2c1c(=O)[nH]c(=O)n2C`: -7.27%; for `CCOC(=O)N/N=C/c1ccccc1OCc1ccc(Cl)cc1`: 31.3%.
On to `Cc1cc(C(C)(C)C)oc1C(=O)O`, for which the “hERG current change (%, negative = inhibition) at 10uM” value is 27.6%.
The same measure for `CC(=O)C1=C(O)C(=O)N(Cc2ccco2)C1c1ccc2c(c1)OCO2` (centres unmarked): 1.14%; for `O=C(NNc1nc2ccc(F)cc2s1)c1cccc(F)c1`: 40.4%.
With `O=C(COC(=O)C12CC3CC(CC(O)(C3)C1)C2)N1CCN(S(=O)(=O)c2ccc(Cl)cc2)CC1`, the “hERG current change (%, negative = inhibition) at 10uM” value is listed as 5.85%.
With `CCc1nc2ccccc2nc1N1CCN(S(=O)(=O)c2ccc(Cl)cc2)CC1`, the “hERG current change (%, negative = inhibition) at 10uM” value stood at 9.99%.
The same measure for `C=CCn1c(=O)c(C(=O)NC(C)c2ccccc2)c(O)c2ccccc21` (centres unmarked): 18.3%; for `c1ccc(CSc2nnc(-c3ccccn3)n2-c2ccccc2)cc1`: -10.6%.
The same measure for `CSCCC(NC(=O)c1ccccc1Br)C(=O)N1CCCC(C(F)(F)F)C1` (centres unmarked): -22.3%.
The same measure for `Cn1nccc1C(=O)N/N=C/c1c(O)ccc2ccccc12`: 10.6%; for `CCC(C)(O)c1[nH]c2ccc(C#N)cc2c1C` (centres unmarked): 2.68%; for `O=C(COC(=O)/C=C/c1ccco1)Nc1ccccc1`: 2.85%.
As for `CCc1ccc(S(=O)(=O)Nc2ccc(O)c3ccccc23)cc1`, the “hERG current change (%, negative = inhibition) at 10uM” value is -5.31%.
`O=[N+]([O-])c1ccc(-c2ccc(/C=N/Nc3nc(N4CCCC4)nc(N4CCCC4)n3)o2)cc1`: the “hERG current change (%, negative = inhibition) at 10uM” value is 14%.
Regarding `O=C(/C=C/c1cccc(F)c1)NCc1ccc2c(c1)OCO2`, the “hERG current change (%, negative = inhibition) at 10uM” value was 16.4%.
With `COCCn1c(C)cc(C(=O)COC(=O)c2n[nH]c3ccccc23)c1C`, the “hERG current change (%, negative = inhibition) at 10uM” value was -12%.
The same measure for `O=C(NCc1cccnc1)c1ccc(Cl)c(S(=O)(=O)N2CCOCC2)c1`: -6.78%.
The same measure for `COc1ccccc1Oc1ccc2c(c1)C(=O)N(c1ccc(C)cc1)C2=O`: 10.8%; for `CCC(CC)c1nn2c(N)c(/C=C3\C(C)=Nc4ccccc43)c(=O)nc2s1`: 14%; for `CCCCn1nc(C(=O)Nc2ccc(-n3cnnn3)cc2)c2ccccc2c1=O`: -11.5%.
`CCn1c2ccccc2c2nnc(SCC(=O)NCCOC)nc21`: the “hERG current change (%, negative = inhibition) at 10uM” value is given as -1.54%.
The same measure for `COc1cccc(C(=O)Nc2ccc(Oc3cccc(C(F)(F)F)c3)nc2)c1`: 6.22%.
The same measure for `CC(C)(C)C(=O)Nc1ccc(-c2cnco2)cc1`: 6.52%; for `[O-][n+]1cccc(C(O)c2ccccc2)c1` (centres unmarked): 12.5%; for `O=C([C@H](Cc1ccccc1)NS(=O)(=O)c1ccc(Cl)cc1)N1CC[C@@]2(O)CCCC[C@H]2C1`: -13.4%.
Turning to `c1cnc(N2CCN(Cc3c[nH]c4ccccc34)CC2)nc1`, the “hERG current change (%, negative = inhibition) at 10uM” value was -36%.
As to `COc1cc(OC)c(C(=O)OCC(=O)Nc2cc(C)on2)cc1OC`, the “hERG current change (%, negative = inhibition) at 10uM” value stood at 23%.
Turning to `NC(=O)C1CCN(C(=O)c2ccc(CS(=O)(=O)c3c(Cl)cccc3Cl)o2)CC1`, the “hERG current change (%, negative = inhibition) at 10uM” value is reported as 2.63%.
Consider `CN1CCC(OC(=O)COc2ccc(F)cc2)CC1.Cl`, for which the “hERG current change (%, negative = inhibition) at 10uM” value was -23.2%.
Consider `Cc1ccc(/C=C(\C#N)c2nc3ccccc3[nH]2)s1`, for which the “hERG current change (%, negative = inhibition) at 10uM” value is listed as -16.7%.
For the compound `COc1ccc(-c2ccc([C@H]3[C@@H]4C=CCC[C@@]4(C)C(=O)N3Cc3ccccc3)c(F)c2)cc1OC`, the “hERG current change (%, negative = inhibition) at 10uM” value was 0.332%.
The same measure for `O=C(COc1cc2oc(=O)c3c(c2cc1Cl)CCC3)NCC1CCC(C(=O)O)CC1` (centres unmarked): 5.36%.
